Assay results: the RNAGym collection of RNA variant scans (doi:10.1073/pnas.2313332121)
This sample is rich in variants without activity.

B1: TPR 5TU (parent)
chain: GGAUCUUCUCGAUCUAACAAAAAAGACAAAUCUGCCACAAAGCUUGAGAGCAUCUUCGGAUGCAGAGGCGGCAGCCUUCGGUGGCGCGAUAGCGCCAACGUUCUCAACUAUGACACGCAAAACGCGUGCUCCGUUGAAUGGAGUUUAUCAUG

Variants of: B1
Test: polymerase ribozyme fitness, log enrichment relative to wild type (log ratio); higher = more active; in vitro selection for triplet polymerase activity
Outline: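 After PCR construction and transcription, each subunit's mutant library from a heterodimeric triplet polymerase ribozyme was annealed with a biotinylated primer, the partner subunit and triplets. Incubation was frozen, at −7 °C, and extended constructs were gel-excised, bound to streptavidin beads and amplified by RT-PCR, in one selection round done in triplicate. Fitness is the logarithm of a genotype's enrichment divided by that of the wild type, from inverse-variance-weighted replicate averages of Illumina-sequenced inputs and outputs. The base of the logarithm is 2, and genotypes needed ≥10 input reads and ≥1 read per output.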

Variant	polymerase ribozyme fitness (log ratio)
G59C U77A C85G A107U	≤ -4.2
U61G C93U	-1.89
U61G U77A	≤ -4.2
A60C G84U	-2.22
A60U C85G	-3.14
A60U C85A	-3.04
A60C C76U A89G C114U G141U	≤ -4.2
U61C U111A A113U A121U U144A	≤ -4.2
A60G G65C	≤ -4.2
U61A G88A C132A	≤ -4.2
U61A A73C U77A C87A	≤ -4.2
A60G C69A C76U C93U C99U A115U C116A	≤ -4.2
A60U G65C	-3.98
A60U G84A G94C C114U A115G C123A G140A	≤ -4.2
G59C G83A C103U A122G	-0.809
U61C G67A A89G G124U	≤ -4.2
A60U A73G G92A C96G A115G U144G	≤ -4.2
U61A C63U G133U	≤ -4.2
U61A C105G	≤ -4.2
A60G G94A C103A G140C	≤ -4.2
U61A G71C U78G C85A G88A U111C G140U G152A	≤ -4.2
A60C C72U G141A A142U	≤ -4.2
U61A G83C	-3.05
A60C U61A G62C G68C C96G C108G A113U	≤ -4.2

Variant	polymerase ribozyme fitness (log ratio)
A60C C99G U101G	≤ -4.2
A60U A64C A89U C116G G133C A147C U148C	≤ -4.2
U61A C76A A91U U102C	≤ -4.2
U61A C76A C87U	-3.68
A60U U61A U77C G88U G140C U151A	≤ -4.2
U61A G80A	-2.08
G59C G92C G126A U130A	≤ -4.2
A60C C93U	-2.64
G59U C75G G88A U144A	≤ -4.2
A60U C96G	-3.34
U61A A73G G80U	≤ -4.2
A60G U77G C87U	≤ -4.2
A60G C114U	-1.83
A60C G67C C85U G141A	≤ -4.2
A60C C93A A107G U127A	≤ -4.2
A60G C96U U101G G128A	-3.75
G59C G86C C96U A121U	-3.29
G59C C79U	-3.43
A60G G71A G92A G143U	≤ -4.2
U61G C85U C131G C132G C149G	≤ -4.2
U61G C99G A138G	≤ -4.2
A60U C87U	-1.36
A60U C87G	≤ -4.2
A60U C79U G81U A91G C95G U102A	≤ -4.2

Variant	polymerase ribozyme fitness (log ratio)
A60U C63G A64C U90C C95G C103A A122G	≤ -4.2
A60U C76G G94A C149G	≤ -4.2
U61A G86U	-2.99
G59U A64G A89G A107C	≤ -4.2
G59U C96U	-0.292
U61A U82G G84C	≤ -4.2
A60C A98G C131A	≤ -4.2
U61A A97G G136A	-0.653
U61A A107C C114U G140U	≤ -4.2
U61A G65A A66C	≤ -4.2
U61A A137C G140A	-4.19
A60G C93U U104G G143C	-3.09
G59C U77G C87U A89U C149U	≤ -4.2
G59C U77A C96G C105U G140A	≤ -4.2
G59U G68A C96U	≤ -4.2
U61G C79U C99U G126A	≤ -4.2
A60C C96G C99U	≤ -4.2
G59C G92C A107G A115G	≤ -4.2
A60U U102C C131A G143A	≤ -4.2
G59C G83A C87A A137U G140U	≤ -4.2
A60U G84U C95G	0.318
A60G C87G A98U	≤ -4.2
U61A G70A G71A C103A G124U A142U	≤ -4.2
A60C G92U	-0.296

Variant	polymerase ribozyme fitness (log ratio)
A60U G86A A150C	≤ -4.2
G59C G67A C85A G112U	≤ -4.2
U61A A66U C103A	≤ -4.2
A60G G67U G86A	-4.13
U61C G81C C95G C123U A142G	≤ -4.2
A60C C76U G80C G117U C123A	≤ -4.2
G59U C93A C114U U127G A138U	≤ -4.2
A60C U61C G83A A89U C99U A106U A121G A122G	≤ -4.2
A60C U77C C87A A98U U139A	≤ -4.2
A60C C79U U102A C103A A142G	≤ -4.2
U61A C79U A91C U139A	≤ -4.2
G59C C95U A110G C116A	-3.2
A60C G74A G136A	≤ -4.2
U61A C132G A137U U144A	≤ -4.2
U61A G143C	-2.62
U61A G86A A122G	-2.67
U61A C76U U102G U109C	≤ -4.2
A60G G70C U77A U135G A147C	≤ -4.2
G59C C85U	-0.507
A60G G88C A106U U134A G140C G143C	≤ -4.2
A60U G80A C85A C93A	≤ -4.2
A60U C93A	-3.06
U61A G140A	≤ -4.2
U61A C72G G84A	≤ -4.2

Variant	polymerase ribozyme fitness (log ratio)
G59C G84U G100A U135C A137C	≤ -4.2
A60G U104G G136U U144C	-3.29
U61G G83A A89U A107G A122G	≤ -4.2
U61A A91U C108G A110U	≤ -4.2
A60C A119U C129A	≤ -4.2
U61C U82C C116U U134C	-2.24
U61A C96U	-1.32
U61A C96A	-1.36
G59C C96G C103G C114U G124U U135C	≤ -4.2
A60U U61A G86A C93A A110C G133A	≤ -4.2
A60C C85U	-1.01
U61G C87G A115U G136A	≤ -4.2
A60G G68U C76G G86U C99U	≤ -4.2
U61A G65A G67C G84U C96G G141U	≤ -4.2
U61G G84A U139C U145C	≤ -4.2
G59U C85G A119U G128A	-4.19
U61G C85G U101A U102G C103A U134C G143C	≤ -4.2
G59U G68A	≤ -4.2
G59U C72A C75A C87U C93G	≤ -4.2
U61A A91C G100C A142U	≤ -4.2
A60G U61A A97G	-1.38
G59C G68U C93G	≤ -4.2
A60G G84A C96G A97U	≤ -4.2
G59C G92U C105A C125A C149U	≤ -4.2

Variant	polymerase ribozyme fitness (log ratio)
U61G C76A U78C G88C	≤ -4.2
A60G G94A U102A C123G	-1.46
G59U G65C C79A	≤ -4.2
G59C G126C	0.783
A60G U102G A150G	≤ -4.2
A60U G70A C85U G86A	≤ -4.2
G59C C85G A89U G92A	≤ -4.2
U61A C85A C96A A121G	≤ -4.2
U61C C76A C95U C96G U134G	≤ -4.2
A60G C93U U104G U111G C114U	≤ -4.2
A60U C85A C93G A150C	≤ -4.2
G59C G67C G94U C96U	≤ -4.2
A60G G92U C118G U127G U151G	≤ -4.2
A60U U130A G133A	≤ -4.2
U61A C85A C96G A110G	≤ -4.2
A60C U82A C99A C132A A142G	≤ -4.2
G59C G94C	-0.253
U61G A66U G80C C85A G92A U146C	≤ -4.2
U61A G126C	-0.89
U61A U78G C95U A107C U148G A150U	≤ -4.2
U61G A107C	≤ -4.2
G59C U61A A64C	≤ -4.2
G59C C96A U139C A142G	≤ -4.2
G59C C99U A119C A137C C149G	≤ -4.2

Variant	polymerase ribozyme fitness (log ratio)
A60U C79G C99G C105U	≤ -4.2
G59C U109G	-0.84
U61A A73G G94U	-3
A60C C69G G74A C95U C99G	≤ -4.2
A60U C79U G84U	≤ -4.2
U61A G71A G83A A107U C116A	≤ -4.2
U61A G62C G67C C69A U82A C103A A142G	≤ -4.2
A60C G81C C87A	≤ -4.2
U61G C87U C125G	≤ -4.2
G59C C76A C87G	≤ -4.2
A60C A91U	≤ -4.2
G59U C85G A113U C125G	≤ -4.2
A60C C93G C105G	≤ -4.2
U61A A89C A107U G117U U144G U151A	≤ -4.2
A60U G126U C129A U151G	≤ -4.2
G59U G80A	-0.046
A60U U78G G86A C95U G143C	≤ -4.2
U61A C75U G83A C96A A110G A120U U146A	≤ -4.2
U61A C87U U102C C103G U130C	≤ -4.2
A60C U61G G92A A110U	-3.93
A60C A64U C93U C132A A142G	≤ -4.2
A60C C72G C93A C95U	≤ -4.2
G59C C79G A137U G141A	≤ -4.2
